{
  "source": "the supplement of paper PMC8728848",
  "binders": {"B1": {"name": "Clec49 (Caenorhabditis elegans) (protein)", "chain": "MTRLTLLLFGLLGAATAQTCNTGGIYNEQFNRCYQYFTAPAQFSFAEQQCNLLGGHLASVQNGQENALLQSNAANSFKRSNYSDYWIGATDLETSGTWKWTDPSVTFDYSNWQLGEPQSGSDCAIQDKGDGTWSAIGCTSYRPYVCVTPVIMTATCPPITTPIPTTCPTPAPCPIKQCVPSCDQGWTYFSPTDFCYRVYHGEKFNDAEASCVLLGGHLASIHSLTENTFVNNIASCGIKEGKYEHLAWIGMRKVGQDWVWTDGTPSDYFNWAPKQPDNPKKELCVQTAPDLSHDKWYENWNNLECNEVMRAYICKKASIHN"}},
  "experiment_in_all_cases": "glycan array binding signal (z-score within array); higher = stronger binding",
  "conditions_in_all_cases": "glycan notation: IUPAC condensed, linker removed",
  "key": {"[1]": {"molecular_target": "Fuc(a1-2)[Gal(a1-4)]Gal(b1-4)GlcNAc", "method_in_brief": "(§1)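 The binding signal is a Z-score computed within each array and averaged over linkers. Arrays of the same protein sequence at different concentrations or buffers were also averaged together. Data originate from 3228 arrays in the Consortium for Functional Glycomics database, kept only where the protein sequence was available.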"}, "[2]": {"molecular_target": "Fuc(a1-2)[GalNAc(a1-3)]Gal", "method_in_brief": "as §1"}, "[3]": {"molecular_target": "Fuc(a1-2)[GalNAc(a1-3)]Gal(b1-3)GalNAc(a1-3)[Fuc(a1-2)]Gal(b1-4)GlcNAc", "method_in_brief": "as §1"}, "[4]": {"molecular_target": "Fuc(a1-2)[GalNAc(a1-3)]Gal(b1-3)GalNAc(b1-3)Gal(a1-4)Gal(b1-4)Glc", "method_in_brief": "as §1"}, "[5]": {"molecular_target": "Fuc(a1-2)[GalNAc(a1-3)]Gal(b1-3)GlcNAc", "method_in_brief": "as §1"}, "[6]": {"molecular_target": "Fuc(a1-2)[GalNAc(a1-3)]Gal(b1-3)GlcNAc(b1-2)Man(a1-3)[Fuc(a1-2)[GalNAc(a1-3)]Gal(b1-3)GlcNAc(b1-2)Man(a1-6)]Man(b1-4)GlcNAc(b1-4)GlcNAc", "method_in_brief": "as §1"}, "[7]": {"molecular_target": "Fuc(a1-2)[GalNAc(a1-3)]Gal(b1-3)GlcNAc(b1-2)Man(a1-3)[Fuc(a1-2)[GalNAc(a1-3)]Gal(b1-3)GlcNAc(b1-2)Man(a1-6)]Man(b1-4)GlcNAc(b1-4)[Fuc(a1-6)]GlcNAc", "method_in_brief": "as §1"}, "[8]": {"molecular_target": "Fuc(a1-2)[GalNAc(a1-3)]Gal(b1-3)GlcNAc(b1-3)GalNAc", "method_in_brief": "as §1"}, "[9]": {"molecular_target": "Fuc(a1-2)[GalNAc(a1-3)]Gal(b1-3)GlcNAc(b1-6)GalNAc", "method_in_brief": "as §1"}, "[10]": {"molecular_target": "Fuc(a1-2)[GalNAc(a1-3)]Gal(b1-4)Glc", "method_in_brief": "as §1"}, "[11]": {"molecular_target": "Fuc(a1-2)[GalNAc(a1-3)]Gal(b1-4)GlcNAc", "method_in_brief": "as §1"}, "[12]": {"molecular_target": "Fuc(a1-2)[GalNAc(a1-3)]Gal(b1-4)GlcNAc(b1-2)Man", "method_in_brief": "as §1"}, "[13]": {"molecular_target": "Fuc(a1-2)[GalNAc(a1-3)]Gal(b1-4)GlcNAc(b1-2)Man(a1-3)[Fuc(a1-2)[GalNAc(a1-3)]Gal(b1-4)GlcNAc(b1-2)Man(a1-6)]Man(b1-4)GlcNAc(b1-4)GlcNAc", "method_in_brief": "as §1"}, "[14]": {"molecular_target": "Fuc(a1-2)[GalNAc(a1-3)]Gal(b1-4)GlcNAc(b1-2)Man(a1-3)[Fuc(a1-2)[GalNAc(a1-3)]Gal(b1-4)GlcNAc(b1-2)Man(a1-6)]Man(b1-4)GlcNAc(b1-4)[Fuc(a1-6)]GlcNAc", "method_in_brief": "as §1"}, "[15]": {"molecular_target": "Fuc(a1-2)[GalNAc(a1-3)]Gal(b1-4)GlcNAc(b1-3)Gal(b1-4)GlcNAc", "method_in_brief": "as §1"}, "[16]": {"molecular_target": "Fuc(a1-2)[GalNAc(a1-3)]Gal(b1-4)GlcNAc(b1-3)Gal(b1-4)GlcNAc(b1-3)Gal(b1-4)GlcNAc", "method_in_brief": "as §1"}, "[17]": {"molecular_target": "Fuc(a1-2)[GalNAc(a1-3)]Gal(b1-4)GlcNAc(b1-3)GalNAc", "method_in_brief": "as §1"}, "[18]": {"molecular_target": "Fuc(a1-2)[GalNAc(a1-3)]Gal(b1-4)GlcNAc(b1-3)[Fuc(a1-2)[GalNAc(a1-3)]Gal(b1-4)GlcNAc(b1-6)]GalNAc", "method_in_brief": "as §1"}, "[19]": {"molecular_target": "Fuc(a1-2)[GalNAc(a1-3)]Gal(b1-4)GlcNAc(b1-6)GalNAc", "method_in_brief": "as §1"}, "[20]": {"molecular_target": "Fuc(a1-2)[GalNAc(a1-3)]Gal(b1-4)[Fuc(a1-3)]GlcNAc", "method_in_brief": "as §1"}, "[21]": {"molecular_target": "Fuc(a1-2)[GalNAc(a1-3)]Gal(b1-4)[Fuc(a1-3)]GlcNAc(b1-3)GalNAc", "method_in_brief": "as §1"}, "[22]": {"molecular_target": "Fuc(a1-2)[GalNAc(a1-4)]Gal(b1-4)GlcNAc", "method_in_brief": "as §1"}, "[23]": {"molecular_target": "Fuc(a1-2)[GalNAc(b1-3)]Gal", "method_in_brief": "as §1"}, "Fuc(a1-3)GlcNAc": {"molecular_target": "Fuc(a1-3)GlcNAc", "method_in_brief": "as §1"}, "[24]": {"molecular_target": "Fuc(a1-3)[Gal(b1-4)]Glc6S", "method_in_brief": "as §1"}, "[25]": {"molecular_target": "Fuc(a1-3)[Gal(b1-4)]GlcNAc", "method_in_brief": "as §1"}, "[26]": {"molecular_target": "Fuc(a1-3)[Gal(b1-4)]GlcNAc(b1-2)Man", "method_in_brief": "as §1"}, "[27]": {"molecular_target": "Fuc(a1-3)[Gal(b1-4)]GlcNAc(b1-2)Man(a1-3)[Fuc(a1-3)[Gal(b1-4)]GlcNAc(b1-2)Man(a1-6)]Man(b1-4)GlcNAc(b1-4)GlcNAc", "method_in_brief": "as §1"}, "[28]": {"molecular_target": "Fuc(a1-3)[Gal(b1-4)]GlcNAc(b1-2)Man(a1-3)[Fuc(a1-3)[Gal(b1-4)]GlcNAc(b1-2)Man(a1-6)]Man(b1-4)GlcNAc(b1-4)[Fuc(a1-6)]GlcNAc", "method_in_brief": "as §1"}, "[29]": {"molecular_target": "Fuc(a1-3)[Gal(b1-4)]GlcNAc(b1-3)Gal(b1-3)[Fuc(a1-4)]GlcNAc", "method_in_brief": "as §1"}, "[30]": {"molecular_target": "Fuc(a1-3)[Gal(b1-4)]GlcNAc(b1-3)Gal(b1-4)[Fuc(a1-3)]GlcNAc", "method_in_brief": "as §1"}, "[31]": {"molecular_target": "Fuc(a1-3)[Gal(b1-4)]GlcNAc(b1-3)Gal(b1-4)[Fuc(a1-3)]GlcNAc(b1-3)Gal(b1-4)[Fuc(a1-3)]GlcNAc", "method_in_brief": "as §1"}, "[32]": {"molecular_target": "Fuc(a1-3)[Gal(b1-4)]GlcNAc(b1-3)GalNAc", "method_in_brief": "as §1"}, "[33]": {"molecular_target": "Fuc(a1-3)[Gal(b1-4)]GlcNAc(b1-6)GalNAc", "method_in_brief": "as §1"}, "[34]": {"molecular_target": "Fuc(a1-3)[Gal(b1-4)]GlcNAc(b1-6)[Gal(b1-3)GlcNAc(b1-3)]Gal(b1-4)Glc", "method_in_brief": "as §1"}, "[35]": {"molecular_target": "Fuc(a1-3)[Gal(b1-4)]GlcNAc6S", "method_in_brief": "as §1"}, "[36]": {"molecular_target": "Fuc(a1-3)[Gal3S(b1-4)]Glc", "method_in_brief": "as §1"}, "[37]": {"molecular_target": "Fuc(a1-3)[Gal3S(b1-4)]GlcNAc", "method_in_brief": "as §1"}},
  "note": "Some of the results follow.",
  "data": [
    {"binder": "B1", "values": [
      {"measurement": "glycan array binding signal (z-score)", "setting": "[1]", "value": -0.212},
      {"measurement": "glycan array binding signal (z-score)", "setting": "[2]", "value": -0.43},
      {"measurement": "glycan array binding signal (z-score)", "setting": "[3]", "value": -0.108},
      {"measurement": "glycan array binding signal (z-score)", "setting": "[4]", "value": -0.583},
      {"measurement": "glycan array binding signal (z-score)", "setting": "[5]", "value": 0.367},
      {"measurement": "glycan array binding signal (z-score)", "setting": "[6]", "value": -0.253},
      {"measurement": "glycan array binding signal (z-score)", "setting": "[7]", "value": -0.383},
      {"measurement": "glycan array binding signal (z-score)", "setting": "[8]", "value": 4.18},
      {"measurement": "glycan array binding signal (z-score)", "setting": "[9]", "value": 0.067},
      {"measurement": "glycan array binding signal (z-score)", "setting": "[10]", "value": -0.862},
      {"measurement": "glycan array binding signal (z-score)", "setting": "[11]", "value": -0.168},
      {"measurement": "glycan array binding signal (z-score)", "setting": "[12]", "value": -0.804},
      {"measurement": "glycan array binding signal (z-score)", "setting": "[13]", "value": 0.062},
      {"measurement": "glycan array binding signal (z-score)", "setting": "[14]", "value": 1.64},
      {"measurement": "glycan array binding signal (z-score)", "setting": "[15]", "value": 0.253},
      {"measurement": "glycan array binding signal (z-score)", "setting": "[16]", "value": 1.99},
      {"measurement": "glycan array binding signal (z-score)", "setting": "[17]", "value": -0.523},
      {"measurement": "glycan array binding signal (z-score)", "setting": "[18]", "value": -0.193},
      {"measurement": "glycan array binding signal (z-score)", "setting": "[19]", "value": -0.657},
      {"measurement": "glycan array binding signal (z-score)", "setting": "[20]", "value": -0.227},
      {"measurement": "glycan array binding signal (z-score)", "setting": "[21]", "value": 0.44},
      {"measurement": "glycan array binding signal (z-score)", "setting": "[22]", "value": 0.068},
      {"measurement": "glycan array binding signal (z-score)", "setting": "[23]", "value": -0.119},
      {"measurement": "glycan array binding signal (z-score)", "setting": "Fuc(a1-3)GlcNAc", "value": -0.399},
      {"measurement": "glycan array binding signal (z-score)", "setting": "[24]", "value": 1.3},
      {"measurement": "glycan array binding signal (z-score)", "setting": "[25]", "value": -0.252},
      {"measurement": "glycan array binding signal (z-score)", "setting": "[26]", "value": -0.059},
      {"measurement": "glycan array binding signal (z-score)", "setting": "[27]", "value": -0.461},
      {"measurement": "glycan array binding signal (z-score)", "setting": "[28]", "value": -0.249},
      {"measurement": "glycan array binding signal (z-score)", "setting": "[29]", "value": 0.332},
      {"measurement": "glycan array binding signal (z-score)", "setting": "[30]", "value": 0.226},
      {"measurement": "glycan array binding signal (z-score)", "setting": "[31]", "value": -0.52},
      {"measurement": "glycan array binding signal (z-score)", "setting": "[32]", "value": -0.416},
      {"measurement": "glycan array binding signal (z-score)", "setting": "[33]", "value": 1.24},
      {"measurement": "glycan array binding signal (z-score)", "setting": "[34]", "value": -0.397},
      {"measurement": "glycan array binding signal (z-score)", "setting": "[35]", "value": -0.462},
      {"measurement": "glycan array binding signal (z-score)", "setting": "[36]", "value": 0.244},
      {"measurement": "glycan array binding signal (z-score)", "setting": "[37]", "value": -0.17}
    ]}
  ]
}
